Measurements reported in the supplement of paper PMC9135407.
Several values for one entry are separate records, joined by “and”; a condition that tells them apart may be missing. Identical values can stand only once. Counter-ions that a name gives are not always drawn. The whole screen tested about 5,800 compounds, of which about 620 (11%) showed activity.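 The calls were made as follows: active = score above a cut-off or among the top three wells of a plate; in these data no inactive exceeds 0.85.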 Only a part is listed here, and it is no random draw.

Test system: primary human hepatic stellate cells (donor 1)
Assay: scaled lipid accumulation score (0 = DMSO-like, 1 = nortriptyline-like); higher = stronger HSC inactivation (lipid re-accumulation), active = hit call of the paper
Conditions: 48 h
[1] = library stock concentration: 3.33 mM
[2] = library stock concentration: 10 mM
[3] = library stock concentration: 1 mM
[4] = library stock concentration: 80 uM
[5] = library stock concentration: 400 uM
[6] = library stock concentration: 2 mM
[7] = library stock concentration: 4.9 mM

Oc1ncnc2[nH]ncc12 [Allopurinol]
scaled lipid accumulation score [1]: inactive: 0.012
scaled lipid accumulation score [2]: inactive: ≤ 0 and inactive: 0.008 and inactive: 0.121
scaled lipid accumulation score (library stock concentration: 14.7 mM): inactive: ≤ 0 and inactive: ≤ -0.001

O=[N+]([O-])c1ccc(-c2nc(-c3ccc(F)cc3)c(-c3ccncc3)[nH]2)cc1
scaled lipid accumulation score [3]: inactive: ≤ 0
scaled lipid accumulation score [1]: inactive: ≤ 0
scaled lipid accumulation score [2]: inactive: ≤ -0.044

Cc1c(OCC(F)(F)F)ccnc1C[S@@+]([O-])c1nc2ccccc2[nH]1
scaled lipid accumulation score [2]: inactive: ≤ 0

Cc1c(OCC(F)(F)F)ccnc1C[S@@+]([O-])c1nc2ccccc2[nH]1 [Dexlansoprazole]
scaled lipid accumulation score [1]: inactive: ≤ 0
scaled lipid accumulation score [2]: inactive: ≤ -0.001

COc1ccc(CCN(C)CCCN2CCc3cc(OC)c(OC)cc3CC2=O)cc1OC [Zatebradine hydrochloride]
scaled lipid accumulation score [2]: inactive: 0.013

Cc1ccc(C(=O)Nc2cccc(C(F)(F)F)c2)cc1Nc1cncc(C(N)=O)c1
scaled lipid accumulation score [4]: inactive: ≤ 0
scaled lipid accumulation score [5]: inactive: 0.035
scaled lipid accumulation score [6]: inactive: ≤ 0
scaled lipid accumulation score [2]: inactive: 0.142

Cc1cc(O)c2c(c1)C(=O)c1cccc(O)c1C2=O [Chrysophanic Acid]
scaled lipid accumulation score [1]: inactive: ≤ 0
scaled lipid accumulation score [2]: inactive: ≤ 0

NC(=O)c1cn(Cc2c(F)cccc2F)nn1 [Rufinamide]
scaled lipid accumulation score [1]: inactive: ≤ 0
scaled lipid accumulation score [2]: inactive: ≤ 0 and inactive: 0.003

CC(C(=O)O)c1ccc(-c2ccccc2)c(F)c1 (stereo not drawn) [Flurbiprofen]
scaled lipid accumulation score: inactive: ≤ 0
scaled lipid accumulation score [1]: inactive: ≤ 0
scaled lipid accumulation score [2]: inactive: ≤ 0 and inactive: 0.018

CC(C(=O)O)c1ccc(-c2ccccc2)c(F)c1 (stereo not drawn) [(?)-Flurbiprofen]
scaled lipid accumulation score [3]: inactive: ≤ 0

O=C(NC1CCN(CCCCC2(C(=O)NCC(F)(F)F)c3ccccc3-c3ccccc32)CC1)c1ccccc1-c1ccc(C(F)(F)F)cc1 [Lomitapide]
scaled lipid accumulation score [1]: active: 1.05

NC(N)=NC(N)=Nc1cccc(Cl)c1 [m-Chlorophenylbiguanide hydrochloride]
scaled lipid accumulation score [2]: inactive: ≤ 0

NC(N)=NC(N)=Nc1cccc(Cl)c1 [1-(m-Chlorophenyl)-biguanide hydrochloride]
scaled lipid accumulation score [2]: inactive: ≤ -0.063

COc1cc2ncnc(Nc3ccc(NC(=O)c4ccccc4)cc3)c2cc1OC [Aurora Kinase Inhibitor II]
scaled lipid accumulation score [1]: inactive: ≤ 0

C[C@H]1O[C@@H](O[C@H]2[C@@H](O)C[C@H](O[C@H]3[C@@H](O)C[C@H](O[C@H]4CC[C@@]5(C)[C@H](CC[C@@H]6[C@@H]5C[C@@H](O)[C@]5(C)[C@@H](C7=CC(=O)OC7)CC[C@]65O)C4)O[C@@H]3C)O[C@@H]2C)C[C@H](O)[C@@H]1O [Digoxin]
scaled lipid accumulation score: active: 1.03
scaled lipid accumulation score [1]: active: 1.11
scaled lipid accumulation score [2]: active: 0.888

COc1cc([S+](C)[O-])ccc1-c1nc2cccnc2[nH]1 (stereo not drawn) [Sulmazole]
scaled lipid accumulation score: inactive: ≤ 0

CCCCc1cc2ccccc2c(OCCN(C)C)n1 [Dimethisoquin hydrochloride]
scaled lipid accumulation score: inactive: 0.71

CC(C(=O)O)c1ccc2c(c1)[nH]c1ccc(Cl)cc12 (stereo not drawn) [Carprofen]
scaled lipid accumulation score [1]: inactive: ≤ 0
scaled lipid accumulation score (library stock concentration: 7.3 mM): inactive: ≤ 0
scaled lipid accumulation score [2]: inactive: ≤ -0.001 and inactive: ≤ 0

C=CCc1cccc(/C=N/NC(=O)CN2CCN(Cc3ccccc3)CC2)c1O
scaled lipid accumulation score [3]: inactive: ≤ 0
scaled lipid accumulation score [1]: inactive: ≤ 0
scaled lipid accumulation score [2]: inactive: ≤ 0 and inactive: 0.215 and inactive: 0.547

CC(NC(=O)C(Cc1ccccc1)NC(=O)OCc1ccccc1)C(=O)CF (stereo not drawn)
scaled lipid accumulation score [1]: inactive: ≤ -0.009
scaled lipid accumulation score [2]: inactive: 0.426

Cc1cccc(C)c1NC(=O)C(C)N (stereo not drawn) [Tocainide hydrochloride]
scaled lipid accumulation score: inactive: ≤ 0
scaled lipid accumulation score [2]: inactive: ≤ -0.07

Cc1cccc(C)c1NC(=O)C(C)N (stereo not drawn)
scaled lipid accumulation score [2]: inactive: ≤ 0

CC(C)N(CCC(=O)c1ccc2ccccc2c1)Cc1ccccc1.Cl
scaled lipid accumulation score [2]: active: 1.1

NCCNc1ncc(C(N)=O)c(Nc2cccc(C(F)(F)F)c2)n1 [Syk Inhibitor II]
scaled lipid accumulation score [1]: inactive: 0.589

CO/N=C(\C(=O)N[C@@H]1C(=O)N2C(C(=O)O)=C(CSc3nnnn3C)CS[C@H]12)c1csc(N)n1
scaled lipid accumulation score [2]: inactive: ≤ 0

O=C1c2c(O)cccc2C([C@@H]2O[C@H](CO)[C@@H](O)[C@H](O)[C@H]2O)c2cc(CO)cc(O)c21 (stereo partly drawn) [Aloin]
scaled lipid accumulation score [1]: inactive: ≤ 0
scaled lipid accumulation score [2]: inactive: ≤ 0

CC[N+](CC)(CC)CCOc1ccc(/C=C/c2ccccc2)cc1
scaled lipid accumulation score [2]: inactive: 0.26 and inactive: ≤ -0.006

Cc1ccccc1C(=O)Nc1ccc(C(=O)N2CCCC(O)c3cc(Cl)ccc32)c(C)c1 (stereo not drawn) [Tolvaptan]
scaled lipid accumulation score [1]: inactive: ≤ 0
scaled lipid accumulation score [2]: inactive: ≤ 0

CC(C)c1cc2c(c(O)c1O)[C@@]13CCCC(C)(C)[C@@H]1C[C@@H]2OC3=O [Carnosol]
scaled lipid accumulation score [3]: inactive: ≤ 0

Nc1nc2[nH]cnc2c(=S)[nH]1 [Thioguanine]
scaled lipid accumulation score [2]: inactive: ≤ 0
scaled lipid accumulation score (library stock concentration: 12 mM): inactive: ≤ 0

Clc1ccc(C2(c3ccc(-c4cn[nH]c4)cc3)CCNCC2)cc1
scaled lipid accumulation score [6]: active: 0.95
scaled lipid accumulation score [2]: active: 1.16

COc1ccccc1N1CCN(CCN2C(=O)c3ccccc3C(C)(C)C2=O)CC1 [ARC 239 dihydrochloride]
scaled lipid accumulation score [2]: inactive: 0.088

CC(=O)C1C(=O)C=C(C)OC1=O (stereo not drawn)
scaled lipid accumulation score [2]: inactive: ≤ 0

CCCCC[C@H](O)/C=C/[C@H]1[C@H](O)CC(=O)[C@@H]1CCCCCCC(=O)NCCO [Prostaglandin E1 Ethanolamide]
scaled lipid accumulation score [3]: inactive: ≤ 0

CN(C)C(=O)C(CCN1CCC(O)(c2ccc(Cl)cc2)CC1)(c1ccccc1)c1ccccc1 [Loperamide HCl]
scaled lipid accumulation score [1]: inactive: 0.485
scaled lipid accumulation score [2]: inactive: 0.611

CN(C)C(=O)C(CCN1CCC(O)(c2ccc(Cl)cc2)CC1)(c1ccccc1)c1ccccc1 [Loperamide hydrochloride]
scaled lipid accumulation score: inactive: 0.682
scaled lipid accumulation score [2]: inactive: 0.699 and inactive: 0.787

COc1cc(C[C@@H](CO)[C@H](CO)Cc2ccc(O)c(OC)c2)ccc1O
scaled lipid accumulation score [2]: inactive: 0.022

COc1ccc(/C=C/C(=O)Nc2ccccc2C(=O)O)cc1OC [Tranilast]
scaled lipid accumulation score [3]: inactive: ≤ 0
scaled lipid accumulation score [1]: inactive: ≤ 0
scaled lipid accumulation score (library stock concentration: 6.1 mM): inactive: ≤ -0.006 and inactive: ≤ 0
scaled lipid accumulation score [2]: inactive: ≤ 0 and inactive: ≤ -0.006

COc1ccc(/C=C/C(=O)Nc2ccccc2C(=O)O)cc1OC
scaled lipid accumulation score [2]: inactive: ≤ 0

CCOC(=O)C1=C(COCCN)NC(C)=C(C(=O)OC)C1c1ccccc1Cl (stereo not drawn) [Amlodipine besylate]
scaled lipid accumulation score (library stock concentration: 3.5 mM): inactive: ≤ 0

CCOC(=O)C1=C(COCCN)NC(C)=C(C(=O)OC)C1c1ccccc1Cl (stereo not drawn) [Amlodipine]
scaled lipid accumulation score [1]: inactive: 0.492
scaled lipid accumulation score [7]: inactive: ≤ -0.006
scaled lipid accumulation score [2]: inactive: 0.33

Oc1ccc(/C=C/c2cc(O)cc(O)c2)cc1 [Resveratrol]
scaled lipid accumulation score: inactive: 0.202
scaled lipid accumulation score [4]: inactive: ≤ 0
scaled lipid accumulation score [5]: inactive: ≤ 0
scaled lipid accumulation score [6]: inactive: ≤ 0
scaled lipid accumulation score [1]: inactive: ≤ 0
scaled lipid accumulation score [2]: inactive: ≤ 0 and inactive: 0.15 and inactive: ≤ -0.006
scaled lipid accumulation score (library stock concentration: 21.9 mM): inactive: 0.06

Oc1ccc(/C=C/c2cc(O)cc(O)c2)cc1 [trans-Resveratrol]
scaled lipid accumulation score [3]: inactive: 0.021

Oc1ccc(/C=C/c2cc(O)cc(O)c2)cc1
scaled lipid accumulation score [2]: inactive: ≤ 0

O=C(Nc1cc(C(F)(F)F)cc(C(F)(F)F)c1)c1cc(Cl)ccc1O
scaled lipid accumulation score [2]: active: 1.1

Cc1nc(N)sc1-c1ccnc(Nc2ccc(N3CCOCC3)cc2)n1
scaled lipid accumulation score [2]: active: 1.07

CCCCC[C@](C)(O)/C=C/[C@@H]1[C@@H](C/C=C\CCCC(=O)OC)[C@@H](O)C[C@H]1O [15(S)-15-methyl Prostaglandin F2.alpha. methyl ester]
scaled lipid accumulation score [3]: inactive: ≤ 0

Cc1ccc(-c2ccc3c(ccc4sc5c(c43)NC[C@@H](C)NC5=O)n2)cn1
scaled lipid accumulation score [2]: active: 1.28

CC1(C)CC(=O)c2c(C(F)(F)F)nn(-c3ccc(C(N)=O)c(N[C@H]4CC[C@H](OC(=O)CN)CC4)c3)c2C1
scaled lipid accumulation score [2]: active: 1.05

CCOc1cc2ncc(C#N)c(Nc3ccc(F)c(Cl)c3)c2cc1NC(=O)/C=C/CN(C)C [Pelitinib (EKB-569)]
scaled lipid accumulation score [2]: inactive: 0.498

CCOc1cc2ncc(C#N)c(Nc3ccc(F)c(Cl)c3)c2cc1NC(=O)/C=C/CN(C)C
scaled lipid accumulation score [4]: inactive: 0.071
scaled lipid accumulation score [5]: inactive: ≤ -0.009
scaled lipid accumulation score [6]: inactive: 0.269

CCCCC[C@H](O)/C=C/C1=C(CCCCCCC(=O)O)C(=O)CC1 [Prostaglandin B1]
scaled lipid accumulation score [3]: inactive: ≤ 0 and inactive: ≤ -0.021

CCCc1c(-c2ccc(O)cc2)nn(-c2ccc(O)cc2)c1-c1ccc(O)cc1 [1,3,5-tris(4-hydroxyphenyl)-4-propyl-1H-pyrazole]
scaled lipid accumulation score [2]: inactive: ≤ -0.07

CCCc1c(-c2ccc(O)cc2)nn(-c2ccc(O)cc2)c1-c1ccc(O)cc1 [Propylpyrazole Triol]
scaled lipid accumulation score [3]: inactive: ≤ 0

Oc1c(Cl)cc(Cl)c(Cl)c1Cc1c(O)c(Cl)cc(Cl)c1Cl [Hexachlorophene]
scaled lipid accumulation score [7]: inactive: ≤ -0.001
scaled lipid accumulation score [2]: inactive: 0.206

Oc1c(Cl)cc(Cl)c(Cl)c1Cc1c(O)c(Cl)cc(Cl)c1Cl
scaled lipid accumulation score [2]: inactive: 0.353

Cc1c(N(C)C)c(=O)n(-c2ccccc2)n1C [Aminopyrine]
scaled lipid accumulation score (library stock concentration: 8.6 mM): inactive: ≤ 0

Cc1c(N(C)C)c(=O)n(-c2ccccc2)n1C [Amidopyrine]
scaled lipid accumulation score: inactive: ≤ 0
scaled lipid accumulation score [1]: inactive: ≤ 0
scaled lipid accumulation score [2]: inactive: 0.058

Cc1c(N(C)C)c(=O)n(-c2ccccc2)n1C [Aminophenazone]
scaled lipid accumulation score [2]: inactive: ≤ 0

C=C1C(=O)[C@]23[C@H](O)[C@H]1CC[C@H]2[C@@]12CO[C@]3(O)[C@@H](O)[C@@H]1C(C)(C)CC[C@@H]2O [Oridonin]
scaled lipid accumulation score [1]: inactive: ≤ 0
scaled lipid accumulation score [2]: inactive: 0.639
